For ten molecules, AlphaScreen luminescence signal results are on record in the supplement of paper PMC12423691.

The other results are listed elsewhere or left out. Binding of human transcription factors and regulators to the viral nucleoprotein by AlphaScreen, crude cell-free proteins, amounts not normalised, one pass. Fold of the Venus control; higher = more signal. No active / inactive call. Single-pass screen; sequences are the whole Swiss-Prot entries looked up by name.

B1: AATF, Q9NY61 (protein)
chain: MAGPQPLALQLEQLLNPRPSEADPEADPEEATAARVIDRFDEGEDGEGDFLVVGSIRKLASASLLDTDKRYCGKTTSRKAWNEDHWEQTLPGSSDEEISDEEGSGDEDSEGLGLEEYDEDDLGAAEEQECGDHRESKKSRSHSAKTPGFSVQSISDFEKFTKGMDDLGSSEEEEDEESGMEEGDDAEDSQGESEEDRAGDRNSEDDGVVMTFSSVKVSEEVEKGRAVKNQIALWDQLLEGRIKLQKALLTTNQLPQPDVFPLFKDKGGPEFSSALKNSHKALKALLRSLVGLQEELLFQYPDTRYLVDGTKPNAGSEEISSEDDELVEEKKQQRRRVPAKRKLEMEDYPSFMAKRFADFTVYRNRTLQKWHDKTKLASGKLGKGFGAFERSILTQIDHILMDKERLLRRTQTKRSVYRVLGKPEPAAQPVPESLPGEPEILPQAPANAHLKDLDEEIFDDDDFYHQLLRELIERKTSSLDPNDQVAMGRQWLAIQKLRSKIHKKVDRKASKGRKLRFHVLSKLLSFMAPIDHTTMNDDARTELYRSLFGQLHPPDEGHGD
B2: CREBRF, Q8IUR6 (protein)
chain: MPQPSVSGMDPPFGDAFRSHTFSEQTLMSTDLLANSSDPDFMYELDREMNYQQNPRDNFLSLEDCKDIENLESFTDVLDNEGALTSNWEQWDTYCEDLTKYTKLTSCDIWGTKEVDYLGLDDFSSPYQDEEVISKTPTLAQLNSEDSQSVSDSLYYPDSLFSVKQNPLPSSFPGKKITSRAAAPVCSSKTLQAEVPLSDCVQKASKPTSSTQIMVKTNMYHNEKVNFHVECKDYVKKAKVKINPVQQSRPLLSQIHTDAAKENTCYCGAVAKRQEKKGMEPLQGHATPALPFKETQELLLSPLPQEGPGSLAAGESSSLSASTSVSDSSQKKEEHNYSLFVSDNLGEQPTKCSPEEDEEDEEDVDDEDHDEGFGSEHELSENEEEEEEEEDYEDDKDDDISDTFSEPGYENDSVEDLKEVTSISSRKRGKRRYFWEYSEQLTPSQQERMLRPSEWNRDTLPSNMYQKNGLHHGKYAVKKSRRTDVEDLTPNPKKLLQIGNELRKLNKVISDLTPVSELPLTARPRSRKEKNKLASRACRLKKKAQYEANKVKLWGLNTEYDNLLFVINSIKQEIVNRVQNPRDERGPNMGQKLEILIKDTLGLPVAGQTSEFVNQVLEKTAEGNPTGGLVGLRIPTSKV
B3: TBX15, Q96SF7 (protein)
chain: MSERRRSAVALSSRAHAFSVEALIGSNKKRKLRDWEEKGLDLSMEALSPAGPLGDTEDAAAHGLEPHPDSEQSTGSDSEVLTERTSCSFSTHTDLASGAAGPVPAAMSSMEEIQVELQCADLWKRFHDIGTEMIITKAGRRMFPAMRVKITGLDPHQQYYIAMDIVPVDNKRYRYVYHSSKWMVAGNADSPVPPRVYIHPDSLASGDTWMRQVVSFDKLKLTNNELDDQGHIILHSMHKYQPRVHVIRKDFSSDLSPTKPVPVGDGVKTFNFPETVFTTVTAYQNQQITRLKIDRNPFAKGFRDSGRNRTGLEAIMETYAFWRPPVRTLTFEDFTTMQKQQGGSTGTSPTTSSTGTPSPSASSHLLSPSCSPPTFHLAPNTFNVGCRESQLCNLNLSDYPPCARSNMAALQSYPGLSDSGYNRLQSGTTSATQPSETFMPQRTPSLISGIPTPPSLPGNSKMEAYGGQLGSFPTSQFQYVMQAGNAASSSSSPHMFGGSHMQQSSYNAFSLHNPYNLYGYNFPTSPRLAASPEKLSASQSTLLCSSPSNGAFGERQYLPSGMEHSMHMISPSPNNQQATNTCDGRQYGAVPGSSSQMSVHMV
B4: LCOR, Q96JN0 (protein)
chain: MQRMIQQFAAEYTSKNSSTQDPSQPNSTKNQSLPKASPVTTSPTAATTQNPVLSKLLMADQDSPLDLTVRKSQSEPSEQDGVLDLSTKKSPCAGSTSLSHSPGCSSTQGNGRPGRPSQYRPDGLRSGDGVPPRSLQDGTREGFGHSTSLKVPLARSLQISEELLSRNQLSTAASLGPSGLQNHGQHLILSREASWAKPHYEFNLSRMKFRGNGALSNISDLPFLAENSAFPKMALQAKQDGKKDVSHSSPVDLKIPQVRGMDLSWESRTGDQYSYSSLVMGSQTESALSKKLRAILPKQSRKSMLDAGPDSWGSDAEQSTSGQPYPTSDQEGDPGSKQPRKKRGRYRQYNSEILEEAISVVMSGKMSVSKAQSIYGIPHSTLEYKVKERLGTLKNPPKKKMKLMRSEGPDVSVKIELDPQGEAAQSANESKNE
B5: GCM1, Q9NP62 (protein)
chain: MEPDDFDSEDKEILSWDINDVKLPQNVKKTDWFQEWPDSYAKHIYSSEDKNAQRHLSSWAMRNTNNHNSRILKKSCLGVVVCGRDCLAEEGRKIYLRPAICDKARQKQQRKRCPNCDGPLKLIPCRGHGGFPVTNFWRHDGRFIFFQSKGEHDHPKPETKLEAEARRAMKKVNTAPSSVSLSLKGSTETRSLPGETQSQGSLPLTWSFQEGVQLPGSYSGHLIANTPQQNSLNDCFSFSKSYGLGGITDLTDQTSTVDPMKLYEKRKLSSSRTYSSGDLLPPSASGVYSDHGDLQAWSKNAALGRNHLADNCYSNYPFPLTSWPCSFSPSQNSSEPFYQQLPLEPPAAKTGCPPLWPNPAGNLYEEKVHVDFNSYVQSPAYHSPQEDPFLFTYASHPHQQYSLPSKSSKWDFEEEMTYLGLDHCNNDMLLNLCPLR
B6: SOX9, P48436 (protein)
chain: MNLLDPFMKMTDEQEKGLSGAPSPTMSEDSAGSPCPSGSGSDTENTRPQENTFPKGEPDLKKESEEDKFPVCIREAVSQVLKGYDWTLVPMPVRVNGSSKNKPHVKRPMNAFMVWAQAARRKLADQYPHLHNAELSKTLGKLWRLLNESEKRPFVEEAERLRVQHKKDHPDYKYQPRRRKSVKNGQAEAEEATEQTHISPNAIFKALQADSPHSSSGMSEVHSPGEHSGQSQGPPTPPTTPKTDVQPGKADLKREGRPLPEGGRQPPIDFRDVDIGELSSDVISNIETFDVNEFDQYLPPNGHPGVPATHGQVTYTGSYGISSTAATPASAGHVWMSKQQAPPPPPQQPPQAPPAPQAPPQPQAAPPQQPAAPPQQPQAHTLTTLSSEPGQSQRTHIKTEQLSPSHYSEQQQHSPQQIAYSPFNLPHYSPSYPPITRSQYDYTDHQNSSSYYSHAAGQGTGLYSTFTYMNPAQRPMYTPIADTSGVPSIPQTHSPQHWEQPVYTQLTRP
B7: FOXD4L4, Q8WXT5 (protein)
chain: MNLPRAERPRSTPQRSLRDSDGEDGKIDVLGEEEDEDEVEDEEEEARQQFLEQSLQPGLQVARWGGVALPREHIEGGGGPSDPSEFGTKFRAPPRSAAASEDARQPAKPPYSYIALITMAILQNPHKRLTLSGICAFISGRFPYYRRKFPAWQNSIRHNLSLNDCFVKIPREPGHPGKGNYWSLDPASQDMFDNGSFLRRRKRFKRHQLTPGAHLPHPFPLPAAHAALHNPHPGPLLGAPAPPQPVPGAYPNTAPGRRPYALLHPHPLRYLLLSARVYAGAPKKAEGADLATPAPFPCCSPHLVLSLGRRARVWRRHREADASLSALRVLCKGSGERVQGLRRVCPRPRGATATCSSDHQACCIPKPLPLCCKCPPPLLLGQFCSNSSSIRRTAPTAALPPRARCWAGTCRPRRRC
B8: S100A12, P80511 (protein)
chain: MTKLEEHLEGIVNIFHQYSVRKGHFDTLSKGELKQLLTKELANTIKNIKDKAVIDEIFQGLDANQDEQVDFQEFISLVAIALKAAHYHTHKE
B9: ZNF573, Q86YE8 (protein)
chain: MFPVLEPHQVGLIRSYNSKTMTCFQELVTFRDVAIDFSRQEWEYLDPNQRDLYRDVMLENYRNLVSLGGHSISKPVVVDLLERGKEPWMILREETQFTDLDLQCEIISYIEVPTYETDISSTQLQSIYKREKLYECKKCQKKFSSGYQLILHHRFHVIERPYECKECGKNFRSGYQLTLHQRFHTGEKPYECTECGKNFRSGYQLTVHQRFHTGEKTYECRQCGKAFIYASHIVQHERIHTGGKPYECQECGRAFSQGGHLRIHQRVHTGEKPYKCKECGKTFSRRSNLVEHGQFHTDEKPYICEKCGKAFRRGHQLTVHQRVHTGKKPYECKECGKGYTTASYFLLHQRIHKGGKPYECKECKKTFTLYRNLTRHQNIHTGEKLFECKQCGKTYTTGSKLFQHQKTHTGEKPYECKECGKAFSLYGYLKQHQKIHTGMKHFECKECKKTFTLYRNLTRHQNIHTGKKLFECQECGKAYSTGSNLIQHRKTHTGEKPYKCKECGKTFSLHGYLNQHQKIHTGMKPYECKVCRKTFTFYRNLTLHQSIHTDEKPFECKECGKTFRRSSHLTAHQSIHADKKPYECKECGKAFKMYGYLTQHQKIHTGGKPYECKECGKAFSRASNLVQHERIHTGEKPYVCKQCGKTFRYGSALKAHQRIHRSIKV
B10: ZSCAN26, Q16670 (protein)
chain: MATALVSAHSLAPLNLKKEGLRVVREDHYSTWEQGFKLQGNSKGLGQEPLCKQFRQLRYEETTGPREALSRLRELCQQWLQPETHTKEQILELLVLEQFLIILPKELQARVQEHHPESREDVVVVLEDLQLDLGETGQQDPDQPKKQKILVEEMAPLKGVQEQQVRHECEVTKPEKEKGEETRIENGKLIVVTDSCGRVESSGKISEPMEAHNEGSNLERHQAKPKEKIEYKCSEREQRFIQHLDLIEHASTHTGKKLCESDVCQSSSLTGHKKVLSREKGHQCHECGKAFQRSSHLVRHQKIHLGEKPYQCNECGKVFSQNAGLLEHLRIHTGEKPYLCIHCGKNFRRSSHLNRHQRIHSQEEPCECKECGKTFSQALLLTHHQRIHSHSKSHQCNECGKAFSLTSDLIRHHRIHTGEKPFKCNICQKAFRLNSHLAQHVRIHNEEKPYQCSECGEAFRQRSGLFQHQRYHHKDKLA

The target of this experiment is nucleoprotein N of Crimean-Congo hemorrhagic fever virus. The experiment can be described thus: AlphaScreen luminescence signal relative to Venus negative control (fold); higher = stronger binding to CCHFV N. The procedure: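 AlphaScreen binding of cell-free made, FLAG-GST-tagged human transcription factors and regulators (crude translation products) to biotinylated N protein; signal as fold of the FLAG-GST-Venus control. One pass.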
As for B1, the AlphaScreen luminescence signal was determined as 1.72. In the case of B2, the AlphaScreen luminescence signal was determined as 2.42. Next, B3: 1.67; B4: 2.09; B5: 9.86. B6 registered an AlphaScreen luminescence signal of 1.16.

On to B7, for which the AlphaScreen luminescence signal stood at 1.86.

The molecule B8 displayed an AlphaScreen luminescence signal of 0.977.

With B9, the AlphaScreen luminescence signal was 4.28. As for B10, the AlphaScreen luminescence signal is 2.09.
